Results as given in PubChem BioAssay (NCATS).
Inconclusive results, whose numbers are uncertain, are shown with a selection of clear calls. No potency is given beside an inconclusive call; the fits are too rough. The source made the active and inactive calls. Calls come from the whole dose curve; as a rule, active = well fitted activation curve with a large enough effect; inconclusive = small, poorly fitted or top-dose-only effect; inactive = flat fitted curve, though single readings scatter. Non-standard residues stand in square brackets, D forms with d. Square brackets hold non-standard residues; d marks the D form. Residues, ends and D or L forms follow the SMILES beside them. Peptide text beside a SMILES is read from it. ξ: configuration not given here. *: point of attachment. Dolaproine = CO[C@@H]([C@@H]1CCCN1)[C@@H](C)C(=O)O; Dil = CC[C@H](C)[C@H](NC)[C@@H](CC(=O)O)OC; Doe = c1ccc(C[C@H](N*)c2nccs2)cc1; ξLac(3-iPr) = CC(C)CC(O)C(=O)O; NMeV = CN[CH](C(=O)O)C(C)C; NMeA = CN[CH](C)C(=O)O; Aib = CC(C)(N)C(=O)O; βAla = NCCC(=O)O
Potency is the fitted concentration of half-maximal effect; tags give direction and shape of the fitted curve.

Test: Primary redox qHTS assay for identification of artifact compounds. (AID 1845223)
Conditions: Amplex Red/HRP redox cycling with DTT, fluorescence; series mostly up to 53.8 µM; redox activity (% of DA3003): at the top concentration
From the text: PI: Alexander Tropsha Ph.D.
UNC Eshelman School of Pharmacy
University of North Carolina, Chapel Hill, North Carolina
Hits from high-throughput screening (HTS) of chemical libraries are often false positives due to their interference with the assay detection technology. In response to this problem, we generated the largest publicly available library of chemical liabilities and developed a free webtool to predict HTS artifacts, both of which are described herein. More specifically, we generated, curated, and integrated HTS datasets for thiol reactivity, redox activity, and luciferase (firefly and nano) activity. Using these curated datasets, we developed and validated several Quantitative Structure-Interference Relationship (QSIR) models to predict nuisance behavior. […] These models were employed for virtual profiling of the National Center for Advancing Translational Science's (NCATS) in-house library, and 256 compounds for each assay were selected for the experimental validation of nuisance behavior. The BA for these external predictions ranged from 58 to 78% for compounds within the applicability domains of the models. […] The models developed in this study, along with aggregation models previously developed by our group (SCAM Detective) were implemented in "Liability Predictor," an online tool which may be used as part of chemical library design or for triaging HTS hits. Both the models and the curated datasets are publicly available at https://liability.mml.unc.edu/.
SEQUENCE No. (e.g., 1, 2, 3, etc.); […] (e.g., Cells, Incubation, Reagent, etc.); VALUE; DESCRIPTION.
1; Reagent; 3 uL; Amplex Red and HRP mixture.
2; Compounds and control; 16 nL; Kalypsis pin tool (Wako USA) equipped with a 1536-well pin head. […]
6; Detection; Fluorescence, ViewLux microplate reader, 525 nm excitation, 598 nm emission.
NOTES (numbers refer to Sequence numbers above)
1. 3 uL of a mixture containing Amplex Red (25 uM final concentration) and horseradish peroxidase (HRP; 250 mU/mL final concentration) in assay buffer (HBSS) was dispensed into all wells of a 1536-well assay plate (solid-bottom black plate; Greiner Bio One, Monroe, NC).
2. A Wako Pin-tool (Wako Automation, Richmond, VA) was used to transfer 16 nL of compounds (consisting of 7-plates in qHTS format, final concentration range 18.3 nM to 114 uM) or control DA3003 (final concentration range 1.22 nM to 40 uM).
3. 15 min. incubation at room temperature protected from light.
4. 1 uL of DTT (prepared fresh; final concentration 250 uM) was dispensed for a final assay volume of 4 uL.
5. Plates were centrifuged (121xg, 15 seconds) and incubated for 30 minutes at room temperature protected from light.
6. Samples were read for fluorescence (Ex/Em = 525(20)/598(25) nm) on a ViewLux CCD imager (PerkinElmer). Data were normalized to DMSO (0% activity) and DA3003 (10 uM final concentration; 100% activity) and the resulting percent inhibition data were fitted to a 4-parameter Hill equation using NCATS in-house software.
In the case of CC(C)(O)/C=C/C(=O)[C@](C)(O)[C@H]1[C@H](O)C[C@@]2(C)[C@@H]3CC=C4[C@@H](C[C@H](O)C(=O)C4(C)C)[C@]3(C)C(=O)C[C@]12C, the Potency is reported as inconclusive [activator, partial curve, poor fit]. In the case of C#CCO[C@H]1CN2CCC1CC2, the “redox activity (% of DA3003)” value is reported as inactive: -3.99%. For COc1ccc(CN(C(=O)[C@@H](N)Cc2c(C)cc(C(N)=O)cc2C)[C@@H](C)c2ncc(-c3ccccc3)[nH]2)cc1C(=O)O, the Potency was inconclusive [activator, partial curve, poor fit]. In the case of CO[C@H]1[C@H](O)[C@H](O[C@H]2CC[C@]3(C)C4CC[C@]5(C)[C@H](C6=CC(=O)OC6)CC[C@]5(O)C4CC[C@@H]3C2)O[C@@H](C)[C@@H]1O (stereo not given in full), the Potency is reported as inconclusive [activator, partial curve, poor fit]. In the case of C=C1C[C@]2(O)[C@@]3(C)CCC(=O)C(C)(C)C3=C(O)C(=O)[C@@]2(C)[C@@H]2C(=O)O[C@@](C)(C(=O)OC)C(=O)[C@@]12C, the Potency is reported as inconclusive [activator, single point]. For CO[C@H]1C[C@H](O[C@H]2CC[C@]3(CO)[C@H]4CC[C@]5(C)[C@@H](C6=CC(=O)OC6)CC[C@]5(O)[C@@H]4CC[C@]3(O)C2)O[C@H](C)[C@H]1O, the “redox activity (% of DA3003)” value was inactive: 23.7% [at 25.6 µM]. In the case of C=C1[C@@H](C)[C@H]2[C@H](Cc3ccccc3)NC(=O)[C@]23OC(=O)/C=C/C(=O)CCC[C@@H](C)C/C=C/[C@H]3[C@@H]1O, the Potency is reported as inconclusive [activator, full curve, poor fit]. For COC[C@]12CN(C)C3C4[C@H](OC)[C@H]1C3(C(OC)C[C@H]2O)[C@H]1C[C@@]2(O)[C@H](OC(=O)c3ccccc3)[C@@H]1[C@]4(O)[C@@H](O)[C@@H]2OC (stereo not given in full), the “redox activity (% of DA3003)” value was inactive: -2.95%. In the case of CC12CCC3C(C1)c1c(cc(O)c(C(=O)c4ccccc4)c1OC3(C)C)O2 (stereo not given), the Potency is reported as inconclusive [activator, single point]. With CCN1C[C@]2(OC(=O)c3ccccc3NC(C)=O)CC[C@H](OC)[C@@]34[C@@H]2C[C@@H]([C@@H]13)[C@@]1(O)C[C@H](OC)[C@H]2C[C@@H]4[C@]1(O)[C@H]2OC the Potency was inconclusive [activator, single point]. For CC[C@@]1(O)C(=O)OCc2c1cc1n(c2=O)Cc2cc3c(OC)cccc3nc2-1, the Potency was inconclusive [activator, single point]. For c1ccc(C2(c3ccccc3)OC[C@@H]([C@H]3CCCCN3)O2)cc1, the “redox activity (% of DA3003)” value was inactive: 0.894%. For CC1=CC(=O)[C@@H](O)[C@]2(C)C3[C@@H](O)[C@@H]4OC(=O)[C@@H]([C@H]4C)[C@]3(C)C(=O)C[C@@H]12 (stereo not given in full), the Potency was inconclusive [activator, single point]. In the case of CCC1=CC2CN3CCc4c([nH]c5ccccc45)[C@@](C(=O)OC)(C2)[C@@H]13, the “redox activity (% of DA3003)” value is reported as inactive: -6.44%. For CC(C)[C@H](NC(=O)c1nn(Cc2ccc(F)cc2)c2ccccc12)C(N)=O, the Potency was inconclusive [activator, partial curve, poor fit]. With COc1cc(N2CCN(C)CC2)ccc1N the Potency was inconclusive [activator, full curve, poor fit]. In the case of CS[C@]1(CO)C(=O)N2[C@H]3C(=CC=C[C@@H]3O)C[C@@]2(SC)C(=O)N1C, the Potency is reported as inconclusive [activator, single point]. For CC(C)(C)c1cc(C(C)(C)C)c2c(c1)C(O)(C(F)(F)F)C(=O)O2 (stereo not given), the Potency was inconclusive [activator, single point]. In the case of CC(C)[C@H]1OC(=O)[C@H](Cc2ccccc2)N(C)C(=O)[C@@H](C(C)C)OC(=O)[C@H](Cc2ccccc2)N(C)C(=O)[C@@H](C(C)C)OC(=O)[C@H](Cc2ccccc2)N(C)C1=O, the Potency is reported as inconclusive [activator, single point]. For C[C@@H]1O[C@@H](O[C@H]2CC[C@@]3(C)C(CC[C@@H]4C3CC[C@]3(C)[C@@H](C5=CC(=O)OC5)CC[C@]43O)C2)[C@H](O[C@@H]2O[C@H](CO)[C@@H](O)[C@H](O)[C@H]2O)[C@H](O)[C@H]1O (stereo not given in full), the Potency was inconclusive [activator, single point]. For C/C=C(/C)C1C=CC2CC(C)CC(C)C2C1/C(O)=C1\C(=O)NC(CC(C)(O)C(=O)O)C1=O (stereo not given), the Potency was inconclusive [activator, single point]. In the case of O=C(O)CNC(=O)c1c(O)c2ccccc2n(Cc2ccccc2)c1=O, the “redox activity (% of DA3003)” value is reported as inactive: -5.26%. In the case of CN(C)[C@@H]1C(=O)C(C(N)=O)=C(O)[C@@]2(O)C(=O)C3=C(O)c4c(O)ccc(Cl)c4[C@@](C)(O)C3C[C@@H]12 (stereo not given in full), the Potency is reported as inconclusive [activator, single point]. In the case of COC1CC(OC2CCC3(C)C(=CCC4C3CCC3(C)C(C(C)OC5OC(COC6OC(CO)C(O)C(O)C6O)C(O)C(O)C5O)CCC43O)C2)OC(C)C1OC1OC(C)C(O)C(OC)C1O (stereo not given), the Potency is reported as inconclusive [activator, partial curve, poor fit]. In the case of C=C1[C@@]23C(=O)O[C@H](C)[C@]24O[C@@]2(C(=C)[C@]5(C=CC(=O)OC5(C)C)CC[C@]32C)[C@H](O)[C@@]1(C)OC4=O, the Potency is reported as inconclusive [activator, single point]. For C[C@H]1CC[C@@H]2[C@@H](C)[C@H]3[C@H](C[C@H]4[C@@H]5CC=C6CC(O[C@@H]7O[C@H](CO)[C@@H](O)[C@H](O[C@@H]8O[C@H](CO)[C@@H](O)[C@H](O)[C@H]8O)[C@@H]7O[C@@H]7O[C@@H](C)[C@H](O)[C@@H](O)[C@H]7O)CC[C@]6(C)[C@H]5CC[C@]34C)N2C1 (stereo not given in full), the Potency was inconclusive [activator, partial curve, poor fit]. For CCC(C)C1NC(=O)C2CCCN2C(=O)C(CC(C)C)OC(=O)CCNC(=O)C(C)N(C)C(=O)C(C(C)C)N(C)C1=O (stereo not given) (cyclo([ξLac(3-iPr)]PI[NMeV][NMeA][βAla]); configuration not given here), the Potency was inconclusive [activator, partial curve, poor fit]. For COC1CC(O[C@H]2CC[C@]3(C)C4CC[C@]5(C)[C@@H](C6=CC(=O)OC6)[C@@H](OC(C)=O)C[C@]5(O)C4CC[C@@H]3C2)OC(C)C1O[C@@H]1O[C@H](CO)[C@@H](O)[C@H](O)[C@H]1O (stereo not given in full), the Potency was inconclusive [activator, single point]. In the case of COC(=O)C12C(=O)C(C)(O)C(=O)C1(C)C(C)=CC1C34CCC(OC3=O)C(C)(CO)C4CCC12C (stereo not given), the Potency is reported as inconclusive [activator, single point]. For C=C1C2(C)CC3C(C)(O)C4=CC(=O)OC(C)(C)C4=CCC3(C)C13C(=O)OC(C)C3(O)C2=O (stereo not given), the Potency was active: 0.733 µM. With COc1cc(C)[nH]c(=O)c1CNC(=O)c1c(C)n([C@H](C)C2CCOCC2)c2ccccc12 the Potency was inconclusive [activator, partial curve, poor fit]. For CCOc1ccccc1-n1c(C(C)N2CCN(C(=O)COc3ccc(Cl)cc3)CC2)nc2ccccc2c1=O (stereo not given), the Potency was inconclusive [activator, partial curve, poor fit]. For C[C@]12CC[C@@H](O[C@@H]3O[C@H](CO)[C@@H](O)[C@H](O)[C@H]3O)C[C@@]1(O)CCC1C2CC[C@]2(C)[C@@H](C3=CC(=O)OC3)CC[C@]12O (stereo not given in full), the “redox activity (% of DA3003)” value was inactive: 3.92% [at 25.6 µM]. In the case of C/C=C(\C)C(O)C(C)/C=C(C)/C=C/C/C(C)=C/Cc1nc(OC)c(OC)c(O[C@@H]2O[C@@H](C)[C@H](O)[C@@H](O)[C@H]2O)c1C (stereo not given in full), the Potency is reported as inconclusive [activator, partial curve]. In the case of CCC(C)/C=C(C)/C=C/C1=CC2=C(Cl)C(=O)C(C)(OC(C)=O)C(=O)C2=CO1 (stereo not given), the Potency is reported as inconclusive [activator, partial curve, poor fit]. With CNc1ccc2oc(C[C@H]3O[C@@]4(CC[C@H]3C)O[C@H](C(C)C(=O)c3ccc[nH]3)[C@H](C)C[C@H]4C)nc2c1C(=O)O (stereo not given in full) the Potency was inconclusive [activator, full curve]. With CC(=O)OCC1=C(C(=O)O)N2C(=O)[C@@H](N)[C@H]2SC1 the Potency was inconclusive [activator, partial curve, poor fit]. For COC1C(O)C(C)OC(OC2C(CO)O[C@@H](O[C@@H]3CC4CCC5C(CC[C@]6(C)[C@@H](C7=CC(=O)OC7)CC[C@]56O)[C@@]4(C)[C@H](OC(C)=O)C3)C(O)C2O)C1O (stereo not given in full), the Potency was inconclusive [activator, partial curve, poor fit]. For CC[C@H](C)[C@@H]([C@@H](CC(=O)N1CCC[C@H]1[C@H](OC)[C@@H](C)C(=O)N[C@@H](Cc1ccccc1)c1nccs1)OC)N(C)C(=O)[C@@H](NC(=O)C(C)(C)N)C(C)C (H-[Aib]V[Dil][Dolaproine]-Doe), the Potency was inconclusive [activator, full curve, poor fit]. With COC(=O)CC1CC2(C(=O)c3c(O)cccc3C2(O)C(=O)OC)C(C)O1 (stereo not given) the “redox activity (% of DA3003)” value was inactive: 9.88%.
